# Screen size: about 48,000 compounds; about 120 (0.25%) were called active. About 4% were inconclusive and are not listed. Calls follow the shape of the dose curve; as a rule, active = well fitted activation curve with a large enough effect; inconclusive = small, poorly fitted or top-dose-only effect, or another doubt; inactive = no such curve, though single readings can be large or run the other way. The list shows a part of the results.
# Test: Primary qHTS for Identification of Small Molecule Activators of Huntingtin-Antisense Promoter Activity; also: nearly all actives have a fitted effect of over 55% in size
# Conditions: HEK293 HTT-AS promoter firefly luciferase reporter (activity 0% = vehicle and -100% = no light), 24 h; series mostly up to 57.5 µM; activity change, positive = activation: at the top concentration
# Summary of the method: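 HEK293 cells carrying firefly luciferase reporters were seeded at 2,500 per well in Opti-MEM and cultured for 24 h. They were then treated with compounds at up to 57.5 uM final for 24 h at 37 degrees C before Dual-Glo luminescence readout.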
row,Structure (SMILES),"activity change, positive = activation"
1,CCOc1ccc(NC(=O)CSc2nc(-c3ccccc3)c3cc(OCC)ccc3n2)cc1,inactive: -6.67%
2,COc1ccc(CNC(=O)c2cnc3sc4cc(OC)ccc4n3c2=O)cc1,inactive: -5.76%
3,O=C(NCc1ccccc1Cl)C(=O)NCC(c1ccc2c(c1)OCO2)N1CCOCC1 (configuration not stated),inactive: -17.1%
4,CCC(CC)C(=O)N1CCc2cc(OC)c(OC)cc2C1COc1ccc2c(C)cc(=O)oc2c1 (configuration not stated),inactive: -6.75%
5,O=C(c1cc(S(=O)(=O)N2CCCC2)c[nH]1)N1CCN(c2cccc(Cl)c2)CC1,inactive: -14.7%
6,O=C(NCc1ccccc1Cl)c1cc(-c2ccccc2)n[nH]1,inactive: 15.2%
7,COCCn1c(CCC(=O)Nc2ccc(OC)c(OC)c2)nc2cccnc21,inactive: 3.16%
8,O=C(Cn1c2ncccc2c(=O)n1-c1ccccc1)NCc1ccccc1,inactive: -10.7%
9,Cc1nc(-c2ccccc2)sc1-c1ccc(SCC(=O)Nc2ccccc2)nn1,inactive: 1.56%
10,CC(C)NCC(O)c1cc(O)cc(O)c1 (configuration not stated),inactive: 2.08%
11,Cc1ccc(NC(=O)c2ccc(F)c(S(=O)(=O)NCCc3ccccc3)c2)cc1F,inactive: -39.2%
12,Cc1oc(-c2cccc(Br)c2)nc1CN1CCC(C(=O)NCc2ccccc2)CC1,inactive: -3.03%
13,COc1cccc(C2C(C(N)=O)=C(C)Nc3nc(CCCO)nn32)c1 (configuration not stated),inactive: -6.74%
14,COc1cccc(CNC(=O)Cc2c(C)c3cc4c(C)coc4cc3oc2=O)c1,inactive: -10.3%
15,Cc1cc(C)cc(NC(=O)CSc2nccn2C2CCCC2)c1,inactive: 12.7%
16,COc1ccc(-c2nc(CSCC(=O)NCCc3ccc(OC)c(OC)c3)c(C)o2)cc1,inactive: -38.3%
17,Cc1sc(NC(=O)C2c3ccccc3Oc3ccccc32)c(C(=O)OC(C)C)c1C,inactive: -12.7%
18,Cc1ccc(S(=O)(=O)c2nnn3c2nc(N(C)Cc2ccccc2)c2cc(Cl)ccc23)cc1C,inactive: -19.8%
19,CC(C)NC(=O)C1=CC(c2ccc3c(c2)OCO3)=NS(=O)(=O)N1C,inactive: -9.14%
20,COc1ccccc1CNC(=O)c1cc2cccc3c2n1CCS3,inactive: -22.7%
21,CCCSc1ncc(Cl)c(C(=O)NCc2ccc(C)cc2)n1,inactive: -27.1%
22,COc1ccc(CNC(=O)CCS(=O)(=O)c2cc3c4c(c2)CCN4C(=O)CC3)cc1OC,inactive: -3.19%
23,COc1ccc(C2C(C(=O)Nc3cccnc3)=C(C)Nc3nc(-c4ccc(OC)c(OC)c4)nn32)cc1 (configuration not stated),inactive: -22.3%
24,CCOC(=O)c1c(C)[nH]c(CCC(=O)NCc2cc(Br)ccc2OC)c1C,inactive: -23.9%

row,Structure (SMILES),"activity change, positive = activation"
1,Cc1c(C(=O)N2CCCC2)oc2c1-c1nn(CC(=O)NCc3ccccc3F)cc1CC2,inactive: -29.9%
2,CCN(CC)c1cc(NC2CCCCC2)c2c3c(onc13)-c1ccccc1C2=O,inactive: -7.2%
3,CC1CCN(S(=O)(=O)c2ccc3c(c2)N(CC(=O)N(C)Cc2ccccc2)C(=O)CO3)CC1,inactive: -13.5%
4,Cn1cnc(S(=O)(=O)N2CCC(C(=O)Nc3ccc(OC(F)(F)F)cc3)CC2)c1,inactive: -29.8%
5,COc1cccc(CNC(=O)C2CCCN(c3nn4cc(-c5ccc(C)cc5)nc4s3)C2)c1 (configuration not stated),inactive: -36.6%
6,O=c1c2sc3ccccc3c2n(Cc2cccc(Cl)c2)c(=O)n1Cc1ccc(F)cc1,inactive: -25.9%
7,Cc1cc(C)c(NC(=O)Cn2nnc3sc4c(c3c2=O)CCC(C(C)(C)C)C4)c(C)c1 (configuration not stated),inactive: -7.68%
8,O=C(c1ccc2c(c1)N(Cc1ccccc1)C(=O)c1ccccc1S2(=O)=O)N1CCC(Cc2ccccc2)CC1,inactive: -0.358%
9,CCCCN1C(C(=O)c2ccccc2)=C(OC(=O)CC)c2ccccc2S1(=O)=O,inactive: -49%
10,COc1cc(C2c3c(-c4ccccc4O)n[nH]c3C(=O)N2Cc2ccncc2)cc(OC)c1OC (configuration not stated),inactive: -2.56%
11,Cc1nnc(N2CCCC(C(=O)Nc3cc(F)ccc3F)C2)c2nn(-c3ccccc3)c(C)c12 (configuration not stated),inactive: -14.1%
12,CCCn1cnc2c1c(=O)n(CCCCC(C)=O)c(=O)n2C,inactive: 0.0383%
13,CC1CCN(c2nc3ccccc3nc2SCC(=O)Nc2ccccc2C(C)C)CC1,inactive: -16.2%
14,CCCN1CCN(c2ncnc3sc(C(=O)Nc4ccc(OC(F)(F)F)cc4)c(C)c23)CC1,inactive: 0.267%
15,CCCCN(CC)CCCNC(=O)c1ccc2c(c1)N(Cc1ccc(C)cc1)C(=O)c1ccccc1S2,inactive: -54.5%
16,COc1cc(NC(=O)COCc2cc(-c3ccc4c(c3)OCO4)on2)c(OC)cc1Cl,inactive: -7.66%
17,CC(=O)c1ccc(NC(=O)Cn2c(=O)nc(-c3ccccc3)c3ccccc32)cc1,inactive: -1.47%
18,O=C(CS(=O)(=O)c1cccc2nsnc12)N1CCN(c2ccc(F)cc2)CC1,inactive: -12%
19,CCOc1ccc(C(=O)c2cn(CC(=O)Nc3ccc(C)c(Cl)c3)c3ccc(OCC)cc3c2=O)cc1,inactive: -9.3%
20,CCCCC(=O)OCc1cc(=O)n2nc(C3CC3)sc2n1,inactive: -2.25%
21,O=C(NC1(C(F)(F)F)N=C(c2ccccc2)N(Cc2ccccc2)C1=O)c1ccc(F)cc1 (configuration not stated),inactive: -23.1%
22,CCOc1ccc(CCNC(=O)c2cc3n(n2)CCCN(Cc2ccc(C)cc2)C3=O)cc1OCC,inactive: -21.3%
23,Cc1cc(-c2ccc(C)c(S(=O)(=O)Nc3ccc(C)c(N(C)C)c3)c2)on1,inactive: -33.5%

# — PubChem BioAssay AID1508624 (National Center for Advancing Translational Sciences (NCATS), 2021)
